FireProtDB (doi:10.1021/bi00178a027)

Conditions: Escherichia coli (strain K12), Thermal, DSC, Sodium phosphate 50 mM, reversible: yes

## Thioredoxin 1 wild type (sequence not shown)
pH 6
  Tm: 74 °C
  heat capacity change of unfolding: 1.93 kcal/mol/K
  unfolding enthalpy (calorimetric): 67.8 kcal/mol
pH 7
  Tm: 73.3 °C
  heat capacity change of unfolding: 2.07 kcal/mol/K
  unfolding enthalpy (calorimetric): 76.1 kcal/mol
